The whole screen tested about 45,000 compounds, of which about 200 (0.44%) were called active. About 7% were inconclusive and are not listed. Calls come from the whole dose curve; as a rule, active = well fitted activation curve with a large enough effect; inconclusive = small, poorly fitted or top-dose-only effect; inactive = no such curve, though single readings can be large or run the other way. This is one part of the list.
Test: qHTS of TDP-43 Inhibitors: NCGC Sytravon Library Screen; note: 0% is about no effect; nearly all actives have a fitted effect of over 55% in size
Conditions: yeast TDP-43 toxicity rescue, BacTiter-Glo growth, 24 h; series mostly up to 46.1 µM; growth rescue (activation): at the top concentration
Procedure, shortened: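 TDP-43-expressing yeast, pregrown in raffinose, seeded at OD600 0.02 in galactose medium with compound for 24 hr at 30 deg C. Growth read by BacTiter-Glo luminescence, so rescue of toxicity appears as activation.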

| Structure (SMILES) | growth rescue (activation) |
| --- | --- |
| CC1=C(C(=O)Nc2ccccc2)C(c2ccccn2)n2ncnc2N1 (stereo not drawn) | inactive: 22.6% |
| CC(=O)Nc1ccc(OCC(O)CN2CCN(c3ccccc3Cl)CC2)cc1 (stereo not drawn) | inactive: -1.42% |
| CCCCCCn1c(SCC(=O)c2c(N)n(C)c(=O)n(C)c2=O)nc2ccccc21 | inactive: 9.42% |
| COc1ccc(OC)c(NC(=O)C2(C)CCN2C(C)C)c1 (stereo not drawn) | inactive: -3.34% |
| Cc1ccc(-n2c(C)n[nH]c2=S)cc1C | inactive: 3.35% |
| CCC(C)(C)NC(=O)CN(C(=O)CCC(=O)Nc1cc(C)ccn1)c1ccc2c(c1)OCCO2 | inactive: 14.6% |
| CCN(CC)S(=O)(=O)c1ccc(N2C(=O)Nc3ccccc3N2O)cc1 | inactive: 5.29% |
| CCOC(=O)C1=C(CS(=O)(=O)c2ccccc2)NC(=O)NC1c1ccc(O)c(OC)c1 (stereo not drawn) | inactive: 20.6% |
| CN(C)CCNc1ncnc2c1ncn2[C@H]1CN(CCc2ccccc2)C[C@@H](CO)O1 | inactive: 5.57% |
| O=C(NNC(=O)C12CC3CC(CC(C3)C1)C2)c1cccc([N+](=O)[O-])c1 | inactive: -2.04% |
| Cn1nnc2cc(C(=O)N3CCN(c4ccccn4)CC3)ccc21 | inactive: -10.7% |
| O=C(O)c1c[nH]c2ccc(F)cc2c1=O | inactive: -5.47% |
| CC(c1nc2ccccc2n1Cc1ccccc1)N1CCCCC1 (stereo not drawn) | inactive: -0.093% |
| Cc1nc(N2CCN(C(=O)c3ccco3)CC2)c2c3c(sc2n1)CC(C)CC3 (stereo not drawn) | inactive: -57.3% |
| CCN(CC)c1ccc(-n2c(O)c(C=C3N=c4ccccc4=N3)sc2=S)cc1 | inactive: 6.32% |
| Cc1cc(-c2nnc(CCC(=O)N3CCN(Cc4cccc(F)c4)CC3)o2)c(C)o1 | inactive: 10.1% |
| COc1cc(CC(=O)OCC(=O)NCC(C)C)cc(OC)c1OC | inactive: 4.51% |
| Cc1c(/C=N\NC(=O)C2COc3ccccc3O2)c2ccccc2n1C (stereo not drawn) | inactive: 23.6% |
| O=C(O)c1ccc(CNC(=S)Nc2ccccc2)cc1 | inactive: -22.1% |
| NC(=O)CC[C@H](NC(=O)c1ccc(F)cc1)C(=O)N1CCN(Cc2ccc3c(c2)OCO3)CC1 | inactive: 1.62% |
| COc1c(/C=N/NC(=O)c2ccncc2)c(CCN(C)C(C)=O)cc2c1OCO2 | inactive: 3.6% |
| CCCn1ccc(O)c(Cc2ccc(Cl)cc2)c1=O | inactive: 0.0391% |

| Structure (SMILES) | growth rescue (activation) |
| --- | --- |
| CCN(CC)S(=O)(=O)c1ccc(N2CCCC2)c(NS(=O)(=O)c2ccc(F)cc2)c1 | inactive: -1.55% |
| O=C(Nc1ccc(N2CCOCC2)cc1)c1cccc2ccccc12 | inactive: 7.12% |
| Cc1nc(N2CCN(C)CC2)c2cc(-c3ccccc3)sc2n1 | inactive: 11.7% |
| O=C(Nc1ccc(N2CCOCC2)c([N+](=O)[O-])c1)c1ccco1 | inactive: -5.01% |
| CCOC(=O)c1c(C)[nH]c(C(=O)N2CCCC(C(=O)c3ccccc3OC)C2)c1C (stereo not drawn) | inactive: 32.6% |
| COc1ccccc1C1CC(c2cccs2)=NN1C(=O)CCC(=O)O (stereo not drawn) | inactive: 2.85% |
| Cc1ccc(NS(=O)(=O)c2ccc(OCC(N)=O)cc2)cc1 | inactive: 11.5% |
| CC1CC(C)CN(C(=O)CNC(=O)Cn2ccc3ccccc3c2=O)C1 (stereo not drawn) | inactive: 1.28% |
| CCOC(=O)N1CCN(C(=O)CN2C(=O)c3ccccc3S2(=O)=O)CC1 | inactive: -5.44% |
| O=C(NNC1CC(=O)N(c2ccc(Cl)cc2)C1=O)c1ccco1 (stereo not drawn) | inactive: 18.8% |
| CC(C)n1nnnc1SCC(=O)Nc1cccc(F)c1 | inactive: 6.53% |
| CCOc1ccc(CCNC(=O)C2=C(C)C(=O)OC23CCCCC3)cc1 | inactive: 5.27% |
| O=C(NNC(=S)Nc1ccc(Br)cc1)c1cccnc1 | inactive: 0.0712% |
| O=C(CN1C(=O)/C(=C\c2ccccc2F)SC1=S)Nc1nc2ccccc2s1 | inactive: -1.68% |
| C=C(C)CNC(=O)CCc1nnc(Cc2cccc(C(F)(F)F)c2)o1 | inactive: 8.46% |
| COC(=O)COc1ccc(S(=O)(=O)N2CCN(c3ccccc3)CC2)cc1 | inactive: 9.29% |
| CCOc1ccc(/C=N/NC(=O)CC(=O)Nc2ccc(Cl)c(Cl)c2)cc1 | inactive: 8.65% |
| Cc1ccc(NC(=O)c2ccc(OC(F)F)cc2)cc1S(=O)(=O)N(C)C | inactive: 2.58% |
| CSc1ccccc1OCc1cc(C(=O)NC2CCOC(C)(C)C2)no1 (stereo not drawn) | inactive: 6.28% |
| COc1cc(C2CC(=O)Oc3c2c(=O)n(C)c2ccccc32)ccc1O (stereo not drawn) | inactive: -2.72% |
| COC(=O)c1c(NC(=O)CSc2nc3nc(C)cc(C)n3n2)sc(C)c1C | inactive: -10.1% |
| O=C(NCc1ccccc1Cl)c1csc([C@@H]2O[C@H](CO)[C@H](O)[C@H](O)[C@H]2O)n1 | inactive: -1.81% |

| Structure (SMILES) | growth rescue (activation) |
| --- | --- |
| CN(Cc1nccn1C)C(=O)CC1C(=O)NCCN1Cc1ccccc1C(F)(F)F (stereo not drawn) | inactive: 8.59% |
| COc1ccc(C(O)c2nc(-c3cccc(CO)c3)cs2)cc1 (stereo not drawn) | inactive: 7.02% |
| COCc1c(C(=O)OCC(=O)c2ccc[nH]2)oc2ccccc12 | inactive: 5.15% |
| O=C(Nc1ccccc1OC(F)F)c1ccc(S(=O)(=O)N2CCOCC2)cc1 | inactive: 13% |
| COc1cc(/C=C(\C#N)c2nc3ccccc3[nH]2)cc(OC)c1O | inactive: 17.8% |
| Cc1cc(NC(=O)CSc2ccccn2)no1 | inactive: 3.79% |
| O=C(NCc1ccco1)/C(=C/c1ccco1)NC(=O)c1ccco1 | inactive: -5.42% |
| CC(C)CC1NC(=O)N(CC(=O)Nc2ccc3c(c2)CCC3)C1=O (stereo not drawn) | inactive: -1.48% |
| CCN(CC(=O)NCc1ccc(F)cc1)C(=O)/C=C/c1cc(OC)ccc1OC | inactive: 12.2% |
| COc1ccc(Br)c(C(=O)NCC2CCCCC2)c1 | inactive: 24% |
| Cc1ccc(SCC(=O)NC2CCS(=O)(=O)C2)cc1 (stereo not drawn) | inactive: -5.08% |
| COc1cc(-c2cc(C(=O)NCCc3ccc(S(N)(=O)=O)cc3)c3ccccc3n2)cc(OC)c1OC | inactive: -6.68% |
| CSc1nc(-c2ccco2)nn1C(=O)c1cccs1 | inactive: 17.5% |
| NS(=O)(=O)c1ccc(CCNC(=O)CSc2cccs2)cc1 | inactive: -3.24% |
| CC(=O)c1ccc(NC(=O)COC(=O)/C=C/c2cccs2)cc1 | inactive: 43.6% |
| Cc1ccc(/C=N/Nc2cccc(C(=O)O)c2)s1 | inactive: 16% |
| COC(=O)Cn1cc(/C=N/NC(=O)COc2cccc3cccnc23)c2ccccc21 | inactive: 22.3% |
| NS(=O)(=O)c1ccc(CCNC(=O)CSc2nc3ccccc3c3nc(CCN4CCCCC4)nn23)cc1 | inactive: -1.47% |
| COCCNc1nnc(Cc2ccc(OC)c(OC)c2)c(=O)[nH]1 | inactive: -7% |
| Cc1ccc(C(=O)OCC(=O)N(C)c2ccccc2)cc1C | inactive: -10.8% |
| CCOC(=O)CC1C(=O)NCCN1C(=O)c1ccc(F)cc1F (stereo not drawn) | inactive: 16.5% |
| CCCn1ncc(CN2CCN(Cc3ccc(C)o3)C(CCO)C2)c1C (stereo not drawn) | inactive: 18.9% |

| Structure (SMILES) | growth rescue (activation) |
| --- | --- |
| Cc1ccccc1CC1(CO)CCCN(Cc2cn[nH]c2-c2ccccc2)C1 (stereo not drawn) | inactive: 5.74% |
| CC12CN(C(=S)Nc3ccccc3)CC(C)(CN(C(=S)Nc3ccccc3)C1)C2=O | inactive: 13.7% |
| O=C(NCc1ccc(Cl)cc1)c1cc(=O)[nH]c2ccc(S(=O)(=O)N3CCOCC3)cc12 | inactive: 19% |
| O=C(O)c1ccc(Cl)c(NCc2cccnc2)c1 | inactive: -1.11% |
| Cc1cccn2c(=O)c3cc(S(=O)(=O)c4ccc(F)cc4)c(=N)n(Cc4ccco4)c3nc12 | inactive: -0.041% |
| Cc1nnc(SCC(=O)NCc2ccc3c(c2)OCO3)n1C | inactive: -0.0686% |
| CC(=O)c1cccc(NC(=O)c2ccc(NC(=O)CCS(=O)(=O)c3cccs3)cc2)c1 | inactive: 5.07% |
| CCN(CC)S(=O)(=O)c1ccc(NC(=O)COC(=O)c2cnc(C)cn2)cc1 | inactive: 3.03% |
| C=CCN(CC(=O)NC1CCS(=O)(=O)C1)S(=O)(=O)c1ccccc1C(F)(F)F (stereo not drawn) | inactive: 4.87% |
| Fc1cccc(COc2ccccc2CNc2ccccc2)c1 | inactive: 25.2% |
| N#C/C(=C(/O)c1ccco1)c1nc2ccccc2[nH]1 | inactive: 2.86% |
| CC(C)(C)OC(=O)NCCC(=O)N/N=C/c1cccc2cccnc12 | inactive: 0.836% |
| O=C(/C=C/c1cccc(F)c1)N1CCN(c2ccccn2)CC1 | inactive: 3.7% |
| COc1ccc(C2=NN(CC(=O)Nc3ccccc3C)C(=O)CC2)cc1 | inactive: 36.2% |
| COc1ccc(CCN(C)C2CCCN(C(=O)Cn3cnnn3)C2)cc1OC (stereo not drawn) | inactive: 2.83% |
| CC(C)C1N(C(=O)N(C)C)CCN1S(=O)(=O)c1ccccc1 (stereo not drawn) | inactive: 15.2% |
| O=C(Nc1nncs1)C12CC3CC(CC(C3)C1)C2 | inactive: 21.7% |
| Cc1ccc2nsnc2c1NC(=O)c1sc2ccccc2c1Cl | inactive: 14.9% |
| CC(C)CNC(=O)c1cccc(NC(=O)CSc2ccc(Cl)cc2)c1 | inactive: 27.9% |
| CCc1ccc(NC(=O)N[C@H](C(=O)O)C(C)CC)cc1 (stereo partly drawn) | inactive: 18.8% |
| O=C(Cc1ccc([N+](=O)[O-])cc1)NCc1ccccn1 | inactive: 1.45% |
| CS(=O)(=O)N1CCN(c2ccnc3cc(Cl)ccc23)CC1 | inactive: -32.3% |

| Structure (SMILES) | growth rescue (activation) |
| --- | --- |
| CCOC(=O)C(CC(=O)Nc1nc(C(C)=O)c(C)s1)C(C)c1ccccc1 (stereo not drawn) | inactive: 17.2% |
| COCC(C)NC(=O)c1cc(OC)cc(OC)c1 (stereo not drawn) | inactive: -7.62% |
| Cc1oc(-c2cccs2)nc1CN1CCN(C(C)C)C(CCO)C1 (stereo not drawn) | inactive: 17.2% |
| NS(=O)(=O)c1ccc(CCNC(=O)c2cc([N+](=O)[O-])ccc2N2CCCCC2)cc1 | inactive: 14.8% |
| CNC(=O)CN(c1cc([N+](=O)[O-])ccc1OC)S(C)(=O)=O | inactive: -9.44% |
| Nc1nc(-c2ccc(-c3ccccc3)cc2)cs1 | inactive: -33% |
| Cc1nn(C)cc1C(=O)/C=C/c1ccc([N+](=O)[O-])cc1 | inactive: 10.4% |
| C/C(=N\Nc1ccc(Cl)c(C(=O)O)c1)c1ccc[nH]1 | inactive: -2.96% |
| O=C(CSc1ncnc2sccc12)NC1CCS(=O)(=O)C1 (stereo not drawn) | inactive: -3.71% |
| CC(C)C(=O)NNS(=O)(=O)c1ccccc1[N+](=O)[O-] | inactive: 4.8% |
| CN(C)c1ccc(C(O)P(=O)(OCc2ccccc2)c2ccc(N(C)C)cc2)cc1 (stereo not drawn) | inactive: -9.39% |
| O=C(c1ccc(Cl)c([N+](=O)[O-])c1)N1CCN(c2ccccc2)CC1 | inactive: -43.8% |
| COc1ccc(-n2nc(C(=O)NCC(=O)N3CCC(C(N)=O)CC3)c3ccccc3c2=O)cc1 | inactive: 2.71% |
| CC(NC(=O)c1cc(=O)[nH]c2ccccc12)c1ccc(F)cc1F (stereo not drawn) | inactive: -5.75% |
| Cc1cccc(-c2ccc(NC(=O)C3CCN(CC4CC4)CC3)cc2)c1 | inactive: 11.8% |
| Cc1cccc(S(=O)(=O)NC(=O)C2(C)CCN2C(=O)c2cccc(F)c2)c1 (stereo not drawn) | inactive: -3.89% |
| CCCC(CCC(=O)Nc1ccn(-c2ccccc2)n1)C(=O)O (stereo not drawn) | inactive: -14.4% |
| CCOP(=O)(c1ccccc1)C(O)c1ccc(Br)cc1 (stereo not drawn) | inactive: 4.41% |
| CC1(c2ccc(Cl)c(Cl)c2)NC(=S)N2C1NC(=S)N2c1ccccc1 (stereo not drawn) | inactive: 24% |
| CC[n+]1c(/C=C/c2ccc(N(C)C)cc2)ccc2ccccc21 | inactive: -49.8% |
